In PubChem BioAssay AID624296 (National Center for Advancing Translational Sciences (NCATS), 2012):
Out of some 350,000 compounds screened, about 9,900 (2.8%) were called active. Inconclusive results, whose numbers are uncertain, are shown with a selection of clear calls. Calls come from the whole dose curve; as a rule, active = well fitted activation curve with a large enough effect; inconclusive = small, poorly fitted or top-dose-only effect; inactive = no such curve, though single readings can be large or run the other way. Potencies of inconclusive entries are left out as doubtful fits.

Assay: A quantitative high throughput screen for small molecules that induce DNA re-replication in MCF 10a normal breast cells. For activity, positive = re-replication: % of control where 0% means no effect. Note: nearly all actives have a fitted effect of over 50% in size.
Details: MCF 10A DNA re-replication, Hoechst nuclear intensity, 48 h; activity, positive = re-replication: at 46.1 µM (top of the series)
Potency is the fitted concentration of half-maximal effect; tags give direction and shape of the fitted curve.

SMILES | Potency | activity, positive = re-replication
COC(=O)CSc1ncnc2c1sc1nc(N3CCOCC3)c3c(c12)CCCC3 | inconclusive [activator, partial curve, poor fit] | –
CC(C)COc1ccc(N)cc1OCC(C)C | inconclusive [activator, single point] | –
COc1ccc(OC)c(C(c2nnnn2C(C)(C)C)N2CCc3ccccc3C2)c1 (stereo not drawn) | inconclusive [activator, partial curve, poor fit] | –
Cc1ccc(-c2nc(CN(C)C3CCOCC3)c(C)o2)s1 | inconclusive [activator, single point] | –
Cc1cc(C)n(-c2ccc(C(=O)NCC(c3ccco3)N3CCCC3)cc2)n1 (stereo not drawn) | inconclusive [activator, single point] | –
Cc1cc(C(=O)N/N=C/c2ccc(-c3cccc(Cl)c3Cl)o2)n[nH]1 | inconclusive [activator, single point] | –
CCOC(=O)N1CCc2[nH]c3ccc(C)cc3c2C1 | inconclusive [activator, single point] | –
Cc1cc(-c2ccccc2)n2nc(N)nc2n1 | inconclusive [activator, single point] | –
O=c1c2cc(NC(=S)NC3CCN(Cc4ccccc4)CC3)ccc2nc2n1CCCCC2 | inconclusive [activator, single point] | –
CC1(C)CC(=O)C(C=Nc2cccnc2/N=C/C2=C(O)CC(C)(C)CC2=O)=C(O)C1 | inactive | –
CCc1ccc(NC(=O)Nc2ccc3c(c2)N(C)C(=O)CS3)cc1 | inactive | –
COc1ccccc1NC(=O)CSc1nc2ccccc2nc1N1CC(C)OC(C)C1 (stereo not drawn) | inconclusive [activator, single point] | –
CCc1c(C(=O)NNC(=S)NCCc2ccccc2)csc1C | inconclusive [activator, single point] | –
Cc1cc(C)n(CC(O)Cn2c3ccccc3c3ccccc32)n1 (stereo not drawn) | inconclusive [activator, partial curve, poor fit] | –
COc1ccc(-c2cc3nc4n(c(=O)c3s2)CCCCC4)cc1 | inactive | –
C/C(CCC(=O)OC[C@H]1O[C@H](C#Cc2ccccc2)C=C[C@@H]1Oc1ccc(C)cc1)=N\OC[C@@H](O)[C@H]1O[C@@H]2OC(C)(C)O[C@@H]2[C@H]1O | inconclusive [activator, single point] | –
COc1ccccc1N1CCN(c2ncnc3sc(C(=O)NCC4CCCO4)c(C)c23)CC1 (stereo not drawn) | inactive | –
O=C(N/N=C/c1ccc(Br)s1)c1ccncc1 | inconclusive [activator, single point] | –
Cc1ccc2[nH]c(=O)c(CN(Cc3ccco3)C(=O)c3ccncc3)cc2c1 | inconclusive [activator, single point] | –
Cc1cc(C(=O)COC(=O)c2cc(Cl)ccc2N)c(C)n1Cc1ccco1 | inconclusive [activator, full curve, poor fit] | –
Cc1ccc(N2NC(=O)/C(=C/C=C/c3ccco3)C2=O)cc1C | active: 23.1 µM | –
CCN(CC(=O)Nc1ccccc1C(F)(F)F)C(=O)CCOc1ccc(C)cc1 | inactive | –
Cc1c(C(=O)NC(c2ccccn2)C(F)(F)F)oc2c(F)cccc12 (stereo not drawn) | inactive | –

SMILES | Potency | activity, positive = re-replication
CC(=O)N1N=C(c2ccc(Br)cc2)CC1c1cn(C)c2ccccc12 (stereo not drawn) | active: 18.4 µM | –
COc1ccc(-c2cc(-c3ccc(C)cc3)nc(SCc3nnc(-c4ccccc4)o3)c2C#N)cc1OC | inconclusive [activator, full curve] | –
CCOC(=O)C1=C(C)C(c2ccc(OC)cc2)NC(=S)N1 (stereo not drawn) | inconclusive [activator, single point] | –
CC1CC(C)CN(S(=O)(=O)c2ccc(C(=O)Nc3sccc3C(N)=O)cc2)C1 (stereo not drawn) | inconclusive [activator, single point] | –
O=C(Cc1ccccc1F)Nc1nc(-c2ccc(F)c(F)c2)cs1 | active: 16.4 µM | –
O=C(NCCN1CCOCC1)c1ccc(CSCc2cccc(Cl)c2)o1 | inconclusive [activator, partial curve, poor fit] | –
CCOc1ccc2c(c1)C(c1ccc(C)cc1)=NNC(c1ccc(C)cc1)=N2 | inconclusive [activator, partial curve, poor fit] | –
CCOC(=O)N1CCC(NC(=O)c2ccc3c(c2)N(Cc2ccc(C)cc2)CCS3)CC1 | inactive | –
COc1cc(C(=O)N(CCN(C)C)CC2CCCN(Cc3ccccc3F)C2)ccc1C (stereo not drawn) | – | inactive: -32.3% [at 9.22 µM]
CCC(C)(C)NC(=O)C(c1ccc(OC)cc1)N(C(=O)CCC(=O)Nc1cc(C)on1)c1cccc(F)c1 (stereo not drawn) | inconclusive [activator, single point] | –
Cc1cc(Cl)ccc1OCC(=O)N1CCCCC1 | inactive | –
Brc1cccc(Nc2nc(-c3cccnc3)cs2)c1 | inconclusive [activator, single point] | –
COc1ccc(-c2noc(CSc3nc4sc(C)c(C)c4c(=O)n3-c3ccccc3)n2)cc1OC | inconclusive [activator, full curve, poor fit] | –
C(=C\N1CCCCCC1)/c1nnnn1-c1ccc(-c2ccccc2)cc1 | inconclusive [activator, partial curve, poor fit] | –
O=C(O)c1cn(-c2ccc(N3CCCC3)c(F)c2)c2c(F)c(F)c(F)cc2c1=O | inconclusive [activator, single point] | –
Cc1ccc(C(=O)C2CCN(CC(=O)NC3CCCC3)CC2)cc1 | inconclusive [activator, single point] | –
Cc1ccccc1CN1C(=O)[C@H]2Cc3c([nH]c4ccccc34)C(C)(C)N2C1=O | inconclusive [activator, partial curve] | –
CCN(CC)S(=O)(=O)c1ccc(NC(=O)COC(=O)CNS(=O)(=O)/C=C/c2ccccc2)cc1 | inactive | –
COC(=O)c1sc(N2C(=O)C(O)=C(C(=O)c3ccc(C)o3)C2c2cccs2)nc1C (stereo not drawn) | active: 18.4 µM | –
COc1ccc(C(=O)C2CCN(CC(=O)Nc3ccc(OC)cc3OC)CC2)cc1 | inconclusive [activator, single point] | –
O=C(c1ccco1)N1C(=O)c2cccc3cccc1c23 | inconclusive [activator, partial curve, poor fit] | –
O=C1/C(=C/c2ccccc2F)SC(=S)N1CCC(=O)N1CCCCC1CCO (stereo not drawn) | active: 23.1 µM | –
CC[C@H](C)[C@H]1CNC(=O)C(=O)N1CC1CCN(CCCc2ccc(OC)c(OC)c2)CC1 | inactive | –

SMILES | Potency | activity, positive = re-replication
Cc1cc(N=Cc2cc(Br)ccc2O)no1 | inconclusive [activator, full curve, poor fit] | –
S=C(NCC1CCCO1)Nc1cccc(Cl)c1 (stereo not drawn) | inactive | –
Cc1cccc(/C(N)=N/OC(=O)c2ccc(Cl)cc2Cl)c1 | inconclusive [activator, partial curve, poor fit] | –
Cc1nc2c(c(=O)c3ccccc3n2C)c(=O)n1C1CCCCCC1 | inactive | –
CN(C)CCNC(=O)Nc1ccc([N+](=O)[O-])cc1 | inactive | –
O=C(COc1cc(O)c2c(=O)cc(-c3ccccc3)oc2c1)c1ccccc1 | inconclusive [activator, single point] | –
COc1ccc(NC(=O)N(Cc2ccc(C)cc2)Cc2ccccn2)c(OC)c1 | inconclusive [activator, single point] | –
CN(CC(=O)Nc1ccc(Cl)cc1)C(=O)CNC(=O)Cc1cccc2ccccc12 | inconclusive [activator, full curve, poor fit] | –
O=C(NC(=S)Nc1ccc(Oc2ccccc2)cc1)c1ccc(Cl)cc1 | inactive | –
COC(=O)c1ccccc1NC(=S)NC(C)=O | inconclusive [activator, single point] | –
COc1ccc(C(C)=O)cc1COC(=O)CCNS(=O)(=O)c1ccc(C(C)=O)cc1 | inactive | –
O=C(NCC(c1ccco1)N1CCc2ccccc2C1)c1cccc(Br)c1 (stereo not drawn) | inconclusive [activator, partial curve, poor fit] | –
COc1cccc(CN(C)C(=O)CSCC(=O)Nc2cccc(C)c2)c1OC | inconclusive [activator, single point] | –
COc1ccccc1NS(=O)(=O)c1cc(N2Cc3ccccc3C2=N)ccc1N1CCOCC1 | inactive | –
CC(=C/c1ccc(C(C)C)cc1)/C=N/NC(=O)c1ccncc1 | active: 20.6 µM | –
Clc1ccc(Cn2ncc3c(NCc4ccco4)ncnc32)c(Cl)c1 | inconclusive [activator, single point] | –
O=[N+]([O-])c1ccc(S(=O)(=O)N2CCN(Cc3ccco3)CC2)cc1 | inactive | –
COc1cc2cnc(-c3ccsc3)c(-c3ccc(F)cc3)c2cc1OC | inconclusive [activator, single point] | –
CCOc1cccc(C(=O)Nc2ccc3oc(-c4cccnc4)nc3c2)c1 | inconclusive [activator, partial curve, poor fit] | –
O=C1C(Cl)=C(Nc2cccc(O)c2)C(=O)N1Cc1ccccc1 | inconclusive [activator, single point] | –
COc1cc2[nH]c3c(N4CCN(c5ccc(Cl)cc5)CC4)ncnc3c2cc1OC | inconclusive [activator, single point] | –
N#CC(=C(O)COC(=O)CCC1CCCCC1)c1nc2ccccc2[nH]1 | inconclusive [activator, single point] | –
